Experimental data as given in the supplement of paper PMC4604168 (melanoma cell lines).
The list shows a part of the results. Many values rest on one well or one pass, so single values are uncertain.

Columns and labels:
Experiment in all cases: cell count relative to DMSO control; melanoma cells; higher = more viable cells
Settings in all cases: library dose: low library concentration; 72 h
[1] = tested on: MZ2-MEL
[2] = tested on: MeWo
[3] = tested on: RPMI7951
[4] = tested on: RVH-421
[5] = tested on: SkMel28
[6] = tested on: SkMel30
[7] = tested on: SkMel5
[8] = tested on: UACC257
[9] = tested on: UACC62
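Note: cell number obtained by counting DAPI-stained nuclei in high-throughput microscope images with image analysis software, screen run in 1,536-well plates.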

Row | Structure (SMILES) | cell count [1] | cell count [2] | cell count [3] | cell count [4] | cell count [5] | cell count [6] | cell count [7] | cell count [8] | cell count [9]
1 | C#Cc1cccc(Nc2ncnc3cc(OCCOC)c(OCCOC)cc23)c1 [erlotinib] + COc1ccc(-c2ccc3c(N4CCOCC4)nc(N4C[C@@H](C)O[C@@H](C)C4)nc3n2)cc1CO [KU0063794] (first compound 0.8 µM, partner dose 0.02 µM) | 97.5% | 80.1% | 96.9% | 79.4% | 79.5% | 67.5% | 95% | 68.5% | 82.9%
2 | O=C(CCCCCCC(=O)Nc1ccccc1)NO [vorinostat] + O=C1NC(=O)/C(=C/c2ccc(-c3ccc(F)cc3O)o2)S1 [AS252424] (first compound 0.08 µM, partner dose 1 µM) | 94.7% | 96.9% | 91.8% | 105% | 81.8% | 104% | 78.3% | 88.4% | 82.9%
3 | C#Cc1cccc(Nc2ncnc3cc(OCCOC)c(OCCOC)cc23)c1 [erlotinib] + CC(C)CCN1c2nc(Nc3cc(F)c(O)c(F)c3)ncc2N(C)C(=O)C1C [BID1870] (first compound 0.8 µM, partner dose 0.2 µM) | 96.2% | 90.9% | 103% | 124% | 92.7% | 88.4% | 96.1% | 87.5% | 69.6%
4 | Nc1cccc2c1CN(C1CCC(=O)NC1=O)C2=O (stereo unspecified) [lenalidomide] + CCc1ccc(CCOc2ccc(CC3SC(=O)NC3=O)cc2)nc1 [pioglitazone] (first compound 1 µM, partner dose 2 µM) | 100% | 98.7% | 107% | 99.7% | 95.5% | 94% | 80.5% | 82.9% | 94.3%
5 | C#Cc1cccc(Nc2ncnc3cc(OCCOC)c(OCCOC)cc23)c1 [erlotinib] + O=c1cc(-c2cccc3c2Sc2ccccc2S3)oc(N2CCOCC2)c1 [KU55933] (first compound 0.8 µM, partner dose 1 µM) | 82.1% | 91.2% | 92.5% | 120% | 80.1% | 109% | 107% | 72.5% | 95.7%
6 | Nc1cccc2c1CN(C1CCC(=O)NC1=O)C2=O (stereo unspecified) [lenalidomide] + COc1ccc2c(c1)CCC1C2CCC2(C)C(NCCCCCCN3C(=O)C=CC3=O)CCC12 [U73122] (first compound 1 µM, partner dose 0.4 µM) | 102% | 112% | 83.4% | 113% | 86.9% | 83.6% | 89.2% | 84.6% | 92.7%
7 | Cn1c(Nc2ccc(C(F)(F)F)cc2)nc2cc(Oc3ccnc(-c4ncc(C(F)(F)F)[nH]4)c3)ccc21 + c1cc(-c2cnn3cc(-c4ccc(OCCN5CCCCC5)cc4)cnc23)ccn1 [Dorsomorphin] (first compound 0.08 µM, partner dose 0.4 µM) | 86.3% | 81.4% | 81.2% | 46.6% | 52.9% | 59.9% | 74.2% | 38.7% | 57%
8 | Cn1c(Nc2ccc(C(F)(F)F)cc2)nc2cc(Oc3ccnc(-c4ncc(C(F)(F)F)[nH]4)c3)ccc21 + Cn1cc(/C=C2\C(=O)Nc3cccnc32)c2ccccc21 [GW441756] (first compound 0.08 µM, partner dose 0.4 µM) | 72.9% | 73.8% | 56.1% | 63.4% | 66.4% | 43.4% | 70.5% | 43.9% | 55.6%
9 | C#Cc1cccc(Nc2ncnc3cc(OCCOC)c(OCCOC)cc23)c1 [erlotinib] + COc1cc2ncnc(Nc3ccc(Oc4ccccc4)cc3)c2cc1OC [SrcI1] (first compound 0.8 µM, partner dose 2 µM) | 80.6% | 87.9% | 113% | 121% | 84.4% | 88.3% | 78.7% | 79.2% | 97.3%
10 | Cn1c(Nc2ccc(C(F)(F)F)cc2)nc2cc(Oc3ccnc(-c4ncc(C(F)(F)F)[nH]4)c3)ccc21 + Oc1cc(-c2nc(-c3ccccc3)[nH]c2-c2ccncc2)ccc1Cl [L779450] (first compound 0.08 µM, partner dose 0.2 µM) | 72.7% | 74.2% | 58.6% | 61.6% | 45.9% | 56.5% | 71.2% | 37% | 45.7%
11 | C#Cc1cccc(Nc2ncnc3cc(OCCOC)c(OCCOC)cc23)c1 [erlotinib] + COc1ccc(COc2ccc(Cc3cnc(N)nc3N)cc2OC)cc1 [GW2580] (first compound 0.8 µM, partner dose 1 µM) | 92.4% | 103% | 104% | 105% | 92.1% | 90.9% | 103% | 86% | 87.4%
12 | COCC[n+]1c2c(n(Cc3cnccn3)c1C)C(=O)c1ccccc1C2=O + c1cc(-c2cnn3cc(-c4ccc(OCCN5CCCCC5)cc4)cnc23)ccn1 [Dorsomorphin] (first compound 0.0004 µM, partner dose 0.4 µM) | 41.5% | 73.4% | 61.3% | 127% | 81.1% | 104% | 54.3% | 73.9% | 75.6%
13 | C#Cc1cccc(Nc2ncnc3cc(OCCOC)c(OCCOC)cc23)c1 [erlotinib] + Cc1cc([N+](=O)[O-])ccc1NS(=O)(=O)c1cc(Cl)ccc1Cl [FH535] (first compound 0.8 µM, partner dose 1 µM) | 89.2% | 91.5% | 98.3% | 102% | 88.2% | 94.5% | 93.3% | 74.4% | 92%
14 | Cn1c(Nc2ccc(C(F)(F)F)cc2)nc2cc(Oc3ccnc(-c4ncc(C(F)(F)F)[nH]4)c3)ccc21 + Cc1cc([N+](=O)[O-])ccc1NS(=O)(=O)c1cc(Cl)ccc1Cl [FH535] (first compound 0.08 µM, partner dose 1 µM) | 64.2% | 58.9% | 59.8% | 62% | 68% | 57.5% | 72% | 34.2% | 45%
15 | O=C(CCCCCCC(=O)Nc1ccccc1)NO [vorinostat] + O=S(=O)(c1ccccc1)N(CC(F)(F)F)c1ccc(C(O)(C(F)(F)F)C(F)(F)F)cc1 [T0901317] (first compound 0.08 µM, partner dose 1.4 µM) | 98.7% | 85.2% | 111% | 94.5% | 80.6% | 100% | 72.7% | 94.7% | 92.7%
16 | Cn1c(Nc2ccc(C(F)(F)F)cc2)nc2cc(Oc3ccnc(-c4ncc(C(F)(F)F)[nH]4)c3)ccc21 + COc1ccc(COc2ccc(Cc3cnc(N)nc3N)cc2OC)cc1 [GW2580] (first compound 0.08 µM, partner dose 1 µM) | 86.2% | 69.6% | 75.2% | 76.5% | 65.9% | 65.3% | 83% | 50.2% | 57%
17 | Cn1c(Nc2ccc(C(F)(F)F)cc2)nc2cc(Oc3ccnc(-c4ncc(C(F)(F)F)[nH]4)c3)ccc21 + O=c1cc(-c2cccc3c2Sc2ccccc2S3)oc(N2CCOCC2)c1 [KU55933] (first compound 0.08 µM, partner dose 1 µM) | 83% | 65.1% | 51.9% | 80% | 63% | 71.7% | 79.1% | 41.5% | 49.6%
18 | Cn1c(Nc2ccc(C(F)(F)F)cc2)nc2cc(Oc3ccnc(-c4ncc(C(F)(F)F)[nH]4)c3)ccc21 + COC(=O)c1sccc1S(=O)(=O)Nc1ccc(Nc2ccccc2)cc1OC [GSK0660] (first compound 0.08 µM, partner dose 1 µM) | 79.3% | 68.6% | 76.3% | 63.5% | 56.3% | 44.9% | 71% | 33.5% | 49.2%
19 | Nc1cccc2c1CN(C1CCC(=O)NC1=O)C2=O (stereo unspecified) [lenalidomide] + COc1cc2ncnc(Nc3ccc(Oc4ccccc4)cc3)c2cc1OC [SrcI1] (first compound 1 µM, partner dose 2 µM) | 91.6% | 102% | 87.1% | 116% | 93% | 123% | 109% | 84.5% | 98.8%
20 | Nc1cccc2c1CN(C1CCC(=O)NC1=O)C2=O (stereo unspecified) [lenalidomide] + O=S(=O)(c1ccccc1)N(CC(F)(F)F)c1ccc(C(O)(C(F)(F)F)C(F)(F)F)cc1 [T0901317] (first compound 1 µM, partner dose 1.4 µM) | 94.9% | 87.8% | 90% | 9.79% | 82.5% | 82% | 72.7% | 81.7% | 84.6%
21 | Nc1cccc2c1CN(C1CCC(=O)NC1=O)C2=O (stereo unspecified) [lenalidomide] + Cn1cc(/C=C2\C(=O)Nc3cccnc32)c2ccccc21 [GW441756] (first compound 1 µM, partner dose 0.4 µM) | 101% | 93.7% | 85% | 89.9% | 88.1% | 91.2% | 78.3% | 78.2% | 89.6%
22 | Nc1cccc2c1CN(C1CCC(=O)NC1=O)C2=O (stereo unspecified) [lenalidomide] + CC(C)CCN1c2nc(Nc3cc(F)c(O)c(F)c3)ncc2N(C)C(=O)C1C [BID1870] (first compound 1 µM, partner dose 0.2 µM) | 104% | 82% | 130% | 99.1% | 86.6% | 108% | 100% | 100% | 86.2%
23 | O=C(CCCCCCC(=O)Nc1ccccc1)NO [vorinostat] + CC(C)CCN1c2nc(Nc3cc(F)c(O)c(F)c3)ncc2N(C)C(=O)C1C [BID1870] (first compound 0.08 µM, partner dose 0.2 µM) | 105% | 82.2% | 103% | 125% | 71.9% | 103% | 82.3% | 78.8% | 76.5%
24 | Nc1cccc2c1CN(C1CCC(=O)NC1=O)C2=O (stereo unspecified) [lenalidomide] + CCN(CC)CCCCNc1ncc2cc(-c3cc(OC)cc(OC)c3)c(NC(=O)NC(C)(C)C)nc2n1 [PD173074] (first compound 1 µM, partner dose 0.1 µM) | 101% | 106% | 106% | 134% | 89.5% | 98.4% | 98.5% | 99.8% | 105%
